± gives the standard deviation of the averaged measurements. Over roughly 33,000 sequences, “E-score (dimensionless, -0.5 to 0.5)” has its median near -0.049; the highest 2% begin near 0.37. The list shows a part of the results.
Test system: T1, PmTbr T-box DNA-binding domain (GST fusion)
T1 sequence: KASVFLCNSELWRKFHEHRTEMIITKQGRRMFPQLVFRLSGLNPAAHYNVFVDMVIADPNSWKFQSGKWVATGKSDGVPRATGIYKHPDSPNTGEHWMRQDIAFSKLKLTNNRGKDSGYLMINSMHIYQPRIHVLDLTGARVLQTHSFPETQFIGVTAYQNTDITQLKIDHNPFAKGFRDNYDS
Test: PBM E-score of 8-mer (E-score (dimensionless, -0.5 to 0.5)); Tbr is Tbrain of the sea star Patiria miniata (Pm) or the sea urchin Strongylocentrotus purpuratus (Sp); higher = stronger binding preference; most listed sequences are background and not binding sites
Conditions: the construct has about 5 more residues each side
Method: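 Universal protein-binding microarray (Agilent AMADID 016060, 60-bp probes with a 35-bp variable region) incubated with 200 nM GST-fused Patiria miniata Tbr T-box DNA-binding domain (residues 272-466) in PBS pH 7.5. Scored for every ungapped 8-mer (given with its reverse complement) by the Universal PBM Analysis Suite as E-score (modified Wilcoxon-Mann-Whitney enrichment, range -0.5 to 0.5; >0.45 counts as bound) and Z-score of median probe intensity. Two replicate arrays (datasets 1 and 2).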

Sequence | PBM E-score of 8-mer
CGGGGAAC | -0.25305 ± 7.1e-05
CCGTACAG | -0.29 ± 0.039
GTTACTAA | -0.0205 ± 0.024
CTGTTCGC | 0.308 ± 0.019
CTGGGGTA | -0.225 ± 0.061
GCCCACCC | -0.139 ± 0.014
ATACCGTA | 0.0236 ± 0.061
GTCGGGTA | 0.104 ± 0.031
GGGTCTAA | 0.0575 ± 0.065
CTTAGATA | -0.182 ± 0.059
AATCGCCT | 0.00429 ± 0.12
ATGGCCAT | -0.1523 ± 0.00071
GTTGTGAA | 0.366 ± 0.038
ACGGGAAT | -0.0525 ± 0.023
CTATTGTC | 0.0205 ± 0.07
TCCTCTCA | 0.118 ± 0.008
GATGGAAA | 0.0118 ± 0.041
ACCAAGTA | 0.0125 ± 0.031
ACGGCAGG | 0.193 ± 0.061
ATTTACTA | -0.2083 ± 0.00086
GTATATGA | -0.042 ± 0.022
GGGTTCAA | -0.184 ± 0.037
ATTTTTCG | 0.151 ± 0.05
CCGGATAA | -0.134 ± 0.034
GTTGGAGA | -0.153 ± 0.0022

Sequence | PBM E-score of 8-mer
CTCTCCCA | 0.112 ± 0.042
ACGATAGG | -0.185 ± 0.12
AGAGTAAC | -0.0608 ± 0.011
GACGTTAA | -0.151 ± 0.047
TCAACTAA | -0.029 ± 0.11
GTCTGGCA | 0.0395 ± 0.072
AACTTAGG | -0.142 ± 0.0089
GGGTGCGA | 0.4765 ± 0.0031
TGTTCAAA | -0.0799 ± 0.071
CCGAAAAA | -0.2382 ± 0.00024
CCATACAA | -0.0606 ± 0.041
AAAAATCA | 0.0406 ± 0.14
GTTCAGGA | 0.0662 ± 0.068
GAGACGAC | -0.104 ± 0.03
CAAATTAC | 0.0272 ± 0.12
CTTAGGAA | -0.24 ± 0.011
CACTTTCC | 0.304 ± 0.011
ACCCGAAG | 0.0968 ± 0.022
GCGTTAGC | 0.343 ± 0.013
ACCGTAGT | -0.0513 ± 0.01
TGTGTAAA | 0.227 ± 0.022
ATGAATTC | 0.0097 ± 0.0095
AAACCCAA | -0.201 ± 0.03
CAATCACA | 0.243 ± 0.019
AACAATCA | 0.0205 ± 0.068

Sequence | PBM E-score of 8-mer
ATCATAGG | -0.1514 ± 0.001
AAAATCAT | -0.0916 ± 0.1
ATGTCCTG | -0.103 ± 0.018
AATGGAGT | -0.152 ± 0.042
ACCTAGCT | -0.0903 ± 0.033
AGGTCTTC | -0.185 ± 0.0046
GATCTTTA | -0.108 ± 0.044
ATTGGATG | -0.0439 ± 0.0095
GACCACCA | -0.142 ± 0.031
AATTTCTA | -0.071 ± 0.1
GTGCCCCA | -0.154 ± 0.084
AAACCCGG | -0.207 ± 0.0074
TCAGACAA | -0.258 ± 0.034
GGGCGATA | 0.167 ± 0.011
CAGATAAA | -0.0747 ± 0.024
CGGTCTGA | -0.158 ± 0.046
AATATCGG | -0.0365 ± 0.031
GTTGCCAA | 0.171 ± 0.056
AATCGCAG | 0.0445 ± 0.062
AGAAATGC | -0.0326 ± 0.03
ACTATTAA | -0.0176 ± 0.062
ATTCTGGA | -0.285 ± 0.012
CGAGGAAC | -0.0145 ± 0.025
AAGCAGCA | -0.0765 ± 0.018
ATTAGTCA | -0.056 ± 0.03

Sequence | PBM E-score of 8-mer
GGCCATTA | -0.224 ± 0.046
CAGTTGGC | 0.0254 ± 0.023
ACGCGATA | 0.294 ± 0.014
CACATACG | 0.237 ± 0.022
CGTGTACC | -0.204 ± 0.043
AGGCTAAA | -0.233 ± 0.034
CACCGTTA | 0.309 ± 0.019
AAGGATCC | -0.293 ± 0.026
AATGATTA | -0.0264 ± 0.018
GGCGACAC | 0.402 ± 0.019
CGTCTCGA | -0.176 ± 0.0097
CCGGCAAG | -0.0275 ± 0.11
GTCTATGA | -0.121 ± 0.03
AAATATTG | 0.189 ± 0.029
AGTTCATC | -0.0165 ± 0.043
GGCGGGTA | 0.0302 ± 0.051
AAGGATGT | -0.108 ± 0.018
CAAAACAA | -0.0449 ± 0.052
GACATTCC | -0.191 ± 0.021
AGGCGCTA | 0.4421 ± 0.0025
CCGCCCAC | -0.0943 ± 0.055
CACTCATG | 0.0878 ± 0.012
ACGCACAG | -0.11 ± 0.006
CTTGCACC | 0.343 ± 0.012
CGAGGATC | -0.00896 ± 0.1

Sequence | PBM E-score of 8-mer
AAGGGCTA | -0.307 ± 0.0073
GGGTGACC | -0.0479 ± 0.082
CCTGGGAG | 0.11 ± 0.046
AACGTTAC | -0.102 ± 0.0068
AACTATAC | -0.0393 ± 0.082
GCGATGCA | -0.0782 ± 0.0088
GAAGATCA | -0.146 ± 0.007
ACCGACAT | 0.0334 ± 0.031
GTCGCGAA | 0.33 ± 0.02
ACCAAACC | 0.136 ± 0.045
CGAACAGA | 0.0159 ± 0.086
CCAGGCTC | -0.207 ± 0.065
GCCAGGTA | 0.0701 ± 0.021
AAGATCAC | 0.106 ± 0.077
TATCCGAA | -0.229 ± 0.026
CCGGGTTC | -0.107 ± 0.0024
GAGAGCCA | -0.172 ± 0.048
CGCGCTTA | 0.237 ± 0.044
CATTTACA | 0.176 ± 0.0018
CTAGTTTA | -0.0628 ± 0.029
AGGACGAG | -0.106 ± 0.051
ACTCATAT | -0.0236 ± 0.097
AAAGTGGA | -0.118 ± 0.1
GAGAGGCC | -0.144 ± 0.022
AATTGTGT | 0.157 ± 0.039

Sequence | PBM E-score of 8-mer
GGTTGATA | 0.00831 ± 0.004
ACTTGACG | 0.235 ± 0.021
CTTTGCGA | 0.0629 ± 0.022
AAGGCCTA | -0.161 ± 0.014
ACCCTCTG | 0.0892 ± 0.023
CGTGTTAG | 0.354 ± 0.01
GAAAGGTC | -0.0952 ± 0.11
GCATGTTA | -0.0286 ± 0.048
ACGACGTA | -0.109 ± 0.034
ATACGGTG | -0.0337 ± 0.0096
AACTACCT | -0.139 ± 0.063
GCGCAACA | 0.13 ± 0.11
CCGGTAAC | 0.12 ± 0.022
ATCAACAA | 0.157 ± 0.079
ACGATGCC | -0.1362 ± 0.00064
CTAAAGCC | -0.136 ± 0.065
ATAAGTTG | -0.0956 ± 0.053
AGGAAGTG | 0.253 ± 0.07
GTACGTGA | 0.203 ± 0.028
ATGAAATG | -0.258 ± 0.021
GGCTGAAC | -0.299 ± 0.02
GCGTCTTA | -0.1318 ± 0.001
CCGACACC | 0.448 ± 0.018
CCCATTTC | -0.0847 ± 0.023
GTGCGCTA | 0.0331 ± 0.028

Sequence | PBM E-score of 8-mer
AAATAGCT | -0.125 ± 0.053
CTGTTCAA | -0.156 ± 0.043
CACGCTTC | 0.328 ± 0.029
CTATCATA | 0.00848 ± 0.019
AAACGACT | 0.0244 ± 0.058
TATTTTGA | 0.0192 ± 0.11
CAGCATCA | -0.203 ± 0.045
GCCATTTA | 0.0118 ± 0.017
ATGGGAAT | -0.0796 ± 0.03
GCATGCCA | -0.0745 ± 0.048
CAAAGGCA | -0.14 ± 0.083
TCGTCCAA | -0.214 ± 0.045
ACTATACT | 0.0322 ± 0.061
TTCCCCAA | -0.16 ± 0.061
CAAGTTAA | -0.0866 ± 0.0029
CGGTACCC | -0.0439 ± 0.073
CCCAGCAG | -0.119 ± 0.19
AACTGGCA | 0.28 ± 0.015
CCGCATGC | -0.18 ± 0.076
AACTCAAT | -0.307 ± 0.008
GCGAATAC | 0.241 ± 0.047
AACAATGG | -0.109 ± 0.041
